Drawing on the supplement of paper PMC10369915, this text covers enrichment score for 19 molecules.

The other results are listed elsewhere or left out. Cut-off read from the data, not from the text of the source: active = 3.2 or more and inactive = the rest. Only a few entries rise above the background.

To fix the notation:
B1: CFI_Y421 (peptide)
chain: IFHENYNAGTY
B2: CFAP47_Y557_A561T (peptide)
chain: AKRKNYAPVTM
B3: CERT1_Y143 (peptide)
chain: SGASGYSATST
B4: CEP43_Y267 (peptide)
chain: KPEKTYGLRKE
B5: CFAP410_Y68 (peptide)
chain: RLSELYLRRNR
B6: CFTR_Y515_V520F (peptide)
chain: VSYDEYRYRSF
B7: CFTR_Y515_D513G_YF (peptide)
chain: VSFGEYRFRSV
B8: CFH_Y1008_A1010T (peptide)
chain: EKKDVYKTGEQ
B9: CERT1_Y143_S138C (peptide)
chain: CGASGYSATST
B10: CFH_Y1008_V1007L (peptide)
chain: EKKDLYKAGEQ
B11: CEP120_Y884 (peptide)
chain: QMRLRYLAAEE
B12: CFTR_Y512_D513G_YF (peptide)
chain: IFGVSYGEFRF
B13: CFAP221_Y798 (peptide)
chain: FPMLNYKDIRK
B14: CEFIP_Y210_N208K (peptide)
chain: THQKSYQPGRK
B15: CEMIP2_Y1015 (peptide)
chain: ITRDEYPSNPM
B16: CENPF_Y1920_E1915A (peptide)
chain: AHEALYLEADL
B17: CENPF_Y700 (peptide)
chain: TQKLAYMELQQ
B18: CFAP221_Y798_M795I (peptide)
chain: FPILNYKDIRK
B19: CFAP47_Y557 (peptide)
chain: AKRKNYAPVAM
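Note: displayed peptides selected on beads carrying the immobilized SH2 domain, with library peptides lacking any tyrosine serving as negative controls.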

The target of one experiment is SHP2 C-SH2 domain E139D. The experiment can be described thus: enrichment score (SH2-bound / input frequency) (ratio); bacterial display of known human phosphotyrosine sites (pTyr-Var adds point mutants) read by sequencing; higher = stronger binding; tyrosines were phosphorylated by kinases first. Particulars: peptide library: pTyr-Var.
As for B1, the enrichment score was inactive: 1.16.
On the same count and under the same terms, the result for B2 reads inactive: 0.931; that for B3, inactive: 0.368; that for B4, inactive: 1.06.
Same read-out and setting: with B5 the figure was inactive: 0.23; with B6, inactive: 0.609.
As to B7, the enrichment score was inactive: 0.711.
For B8, the enrichment score was inactive: 0.351.
As to B9, the enrichment score was inactive: 0.682.
Still for that read-out and setting: with B10 the figure was inactive: 0.668.
Same read-out and setting: the result for B11 reads inactive: 1.23.
As for B12, the enrichment score was inactive: 2.07.
Still for that read-out and setting: the result for B13 reads inactive: 0.874.
With B14, the enrichment score is inactive: 0.425.
On the same count and under the same terms, the result for B15 reads inactive: 0.59.
Consider B16, for which the enrichment score is inactive: 0.747.
Turning to B17, the enrichment score is inactive: 0.778.
Turning to B18, the enrichment score is inactive: 1.06.
The same measure, in the same setting: with B19 the figure was inactive: 0.639.

The next experiment deals with SHP2 C-SH2 domain wild-type. The description is as above. The note with it: peptide library: pTyr-Var.
Turning to B1, the enrichment score is inactive: 0.818.
In the case of B2, the enrichment score is inactive: 0.838.
Still for that read-out and setting: the result for B3 reads inactive: 0.478; that for B4, inactive: 0.978.
In the case of B5, the enrichment score is inactive: 0.196.
B6: the enrichment score is inactive: 0.661.
The same measure, in the same setting: the result for B7 reads inactive: 0.593; that for B8, inactive: 0.394.
As to B9, the enrichment score was inactive: 0.869.
In the case of B10, the enrichment score was inactive: 0.627.
As for B11, the enrichment score is inactive: 1.01.
The same measure, in the same setting: the result for B12 reads inactive: 2.02.
Same read-out and setting: with B13 the figure was inactive: 0.947.
For B14, the enrichment score was inactive: 0.675.
Same read-out and setting: the result for B15 reads inactive: 0.593; that for B16, inactive: 0.77; that for B17, inactive: 1.06.
On the same count and under the same terms, with B18 the figure was inactive: 0.8; with B19, inactive: 0.615.

The next experiment deals with SHP2 N-SH2 domain L43F. The description is as above. The note with it: peptide library: pTyr-Var.
As for B1, the enrichment score was inactive: 0.948.
As to B2, the enrichment score is inactive: 0.71.
B3: the enrichment score is inactive: 0.407.
Regarding B4, the enrichment score is inactive: 0.885.
The same measure, in the same setting: the result for B5 reads inactive: 0.402.
Turning to B6, the enrichment score was inactive: 0.539.
The same measure, in the same setting: with B7 the figure was inactive: 0.668; with B8, inactive: 0.527; with B9, inactive: 0.735.
Same read-out and setting: with B10 the figure was inactive: 0.74; with B11, inactive: 0.814.
Still for that read-out and setting: the result for B12 reads inactive: 2; that for B13, inactive: 1.03.
As for B14, the enrichment score is inactive: 0.516.
On the same count and under the same terms, with B15 the figure was inactive: 0.583; with B16, inactive: 0.848.
On the same count and under the same terms, with B17 the figure was inactive: 2.1.
For B18, the enrichment score is inactive: 1.11.
The same measure, in the same setting: with B19 the figure was inactive: 0.692.

For another experiment, the target named is SHP2 N-SH2 domain T42A. The experiment is described as above. Particulars: peptide library: pTyr-Var.
Consider B1, for which the enrichment score was inactive: 0.724.
As for B2, the enrichment score was inactive: 0.585.
Same read-out and setting: with B3 the figure was inactive: 0.388.
In the case of B4, the enrichment score was inactive: 0.87.
The same measure, in the same setting: the result for B5 reads inactive: 0.24; that for B6, inactive: 0.605.
Still for that read-out and setting: with B7 the figure was inactive: 0.653; with B8, inactive: 0.398.
In the case of B9, the enrichment score was inactive: 0.664.
Still for that read-out and setting: with B10 the figure was inactive: 0.58; with B11, inactive: 0.688.
As for B12, the enrichment score is inactive: 2.55.
Still for that read-out and setting: with B13 the figure was inactive: 0.703; with B14, inactive: 0.436; with B15, inactive: 0.519.
Same read-out and setting: the result for B16 reads inactive: 0.761; that for B17, inactive: 2.83.
Same read-out and setting: the result for B18 reads inactive: 0.992; that for B19, inactive: 0.528.

The next experiment has as its target SHP2 N-SH2 domain T52S. The description is as above. The note with it: peptide library: pTyr-Var.
Consider B1, for which the enrichment score is inactive: 1.01.
Still for that read-out and setting: with B2 the figure was inactive: 0.644; with B3, inactive: 0.385.
Same read-out and setting: with B4 the figure was inactive: 0.902.
Take B5: the enrichment score was inactive: 0.234.
As for B6, the enrichment score is inactive: 0.467.
On the same count and under the same terms, with B7 the figure was inactive: 0.749; with B8, inactive: 0.396; with B9, inactive: 0.525.
On to B10, for which the enrichment score was inactive: 0.533.
Still for that read-out and setting: the result for B11 reads inactive: 0.722; that for B12, inactive: 2.08; that for B13, inactive: 1.27.
For B14, the enrichment score was inactive: 0.301.
Consider B15, for which the enrichment score was inactive: 0.562.
B16: the enrichment score is inactive: 0.708.
The same measure, in the same setting: the result for B17 reads inactive: 1.96; that for B18, inactive: 0.788; that for B19, inactive: 0.826.

A further experiment has as its target SHP2 N-SH2 domain wild-type. The experiment is described as above. The note with it: peptide library: pTyr-Var.
For B1, the enrichment score is inactive: 0.897.
Same read-out and setting: the result for B2 reads inactive: 0.552; that for B3, inactive: 0.413; that for B4, inactive: 0.942.
On the same count and under the same terms, the result for B5 reads inactive: 0.217; that for B6, inactive: 0.567.
Still for that read-out and setting: the result for B7 reads inactive: 0.904; that for B8, inactive: 0.261; that for B9, inactive: 0.913.
As to B10, the enrichment score is inactive: 0.917.
Same read-out and setting: with B11 the figure was inactive: 0.925; with B12, inactive: 2.09; with B13, inactive: 0.97.
With B14, the enrichment score was inactive: 0.459.
The same measure, in the same setting: the result for B15 reads inactive: 0.449; that for B16, inactive: 1.1.
The same measure, in the same setting: with B17 the figure was inactive: 1.26; with B18, inactive: 0.855; with B19, inactive: 0.661.
